{"source": "patent US6025491A", "about": "“Water soluble onium salt of taxo-diterpenoid” (The Scripps Research Institute, priority 1998, dated 2000)", "tested_on": "cell line panel including leukemia, ovarian, lung, and breast carcinoma cells", "experiment": "cytotoxicity (XTT), cell line panel", "conditions": "discussion statement", "note": "Where a name gives a salt, the structure may show the parent alone.", "data": [{"smiles": "CC(=O)O[C@H]1C(=O)[C@@]2(C)[C@H]([C@H](OC(=O)c3ccccc3)[C@]3(O)C[C@H](OC(=O)[C@H](Oc4cccc[n+]4C)[C@@H](NC(=O)c4ccccc4)c4ccccc4)C(C)=C1C3(C)C)[C@]1(OC(C)=O)CO[C@@H]1C[C@@H]2O", "note": "[taxol-2'-MPT, Taxol-2'-MPT (methylpyridinium tosylate)]", "values": [{"measurement": "cytotoxicity (words, discussion)", "value": "lack of cytotoxicity"}]}]}
